{"source": "PubChem BioAssay", "key": {"[1]": {"biological_target": "Solute carrier family 12 member 5 (Homo sapiens) (UniProt Q9H2X9)", "sequence (Q9H2X9 whole entry, looked up)": "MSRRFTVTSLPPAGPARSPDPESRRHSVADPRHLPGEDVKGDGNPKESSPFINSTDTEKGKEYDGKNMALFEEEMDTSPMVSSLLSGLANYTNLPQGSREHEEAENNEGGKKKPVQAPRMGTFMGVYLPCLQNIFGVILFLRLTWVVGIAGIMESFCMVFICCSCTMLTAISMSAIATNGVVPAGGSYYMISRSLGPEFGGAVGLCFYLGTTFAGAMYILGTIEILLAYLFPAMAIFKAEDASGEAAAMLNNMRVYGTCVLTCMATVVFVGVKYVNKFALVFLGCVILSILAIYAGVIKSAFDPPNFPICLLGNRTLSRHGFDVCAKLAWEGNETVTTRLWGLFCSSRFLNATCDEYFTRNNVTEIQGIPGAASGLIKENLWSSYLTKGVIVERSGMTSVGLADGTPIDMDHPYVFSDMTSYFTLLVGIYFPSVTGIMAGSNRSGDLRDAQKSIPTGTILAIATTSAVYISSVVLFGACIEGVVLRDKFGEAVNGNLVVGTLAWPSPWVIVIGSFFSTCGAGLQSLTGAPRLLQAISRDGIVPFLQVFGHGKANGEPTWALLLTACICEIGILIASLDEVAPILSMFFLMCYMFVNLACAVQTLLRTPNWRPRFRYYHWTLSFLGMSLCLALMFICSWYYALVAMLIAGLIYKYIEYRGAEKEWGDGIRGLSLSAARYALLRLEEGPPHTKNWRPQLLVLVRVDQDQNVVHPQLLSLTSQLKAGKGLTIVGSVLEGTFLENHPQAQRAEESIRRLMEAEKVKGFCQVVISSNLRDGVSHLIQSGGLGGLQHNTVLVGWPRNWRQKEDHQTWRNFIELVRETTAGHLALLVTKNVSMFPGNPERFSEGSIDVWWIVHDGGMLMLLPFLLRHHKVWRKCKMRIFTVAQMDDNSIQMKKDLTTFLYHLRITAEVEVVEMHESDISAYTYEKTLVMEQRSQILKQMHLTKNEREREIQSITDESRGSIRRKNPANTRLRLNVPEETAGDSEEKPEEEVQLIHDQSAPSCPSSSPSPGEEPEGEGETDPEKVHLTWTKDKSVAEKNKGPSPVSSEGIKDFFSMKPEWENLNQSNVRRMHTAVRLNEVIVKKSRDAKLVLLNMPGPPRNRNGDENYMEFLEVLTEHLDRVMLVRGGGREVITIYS", "assay": "retest of KCC2 transport modulation, ouabain-free – cell-based, HEK293 KCC2, thallium flux, FluoZin2, secondary assay 2, confirmation (AID 1715);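 note: raw slope with 0.1% DMSO as baseline and bumetanide as block control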", "conditions": "HEK293-KCC2, thallium flux FluoZin2 fluorescence; at 10 µM; actives lie on both sides; F/F0 rise rate, 10–20 s post-thallium"}, "[2]": {"assay": "compound effects on native HEK Tl+ uptake – HEK cells, counterscreen 1, counter-screen for KCC2 modulator project, confirmation (AID 1716;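 active = thallium flux rate significantly above the same plate's solvent-only control wells, beyond their mean plus 3 SD; inconclusive = the two replicate wells gave conflicting results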)", "conditions": "HEK293 parental cells, thallium flux FluoZin2, ouabain; at 10 µM; baseline-ratio fluorescence slope, 10–20 s after thallium"}, "[3]": {"assay": "native HEK Tl+ uptake effects, second counter-screen – HEK cells, counterscreen 2, counter-screen for KCC2 modulator project, confirmation (AID 1718;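 active = thallium flux slope above the same plate's solvent-control mean plus 3 SD in both duplicate wells; inconclusive = duplicate wells that disagreed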;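 note: run without ouabain in cells lacking the KCC2 cotransporter; slope of fluorescence scaled to its starting value between 10 and 20 s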)", "conditions": "HEK293 parental, thallium flux FluoZin-2 fluorescence slope; at 10 µM", "in_short": "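Assay system – untransfected HEK cells, thallium influx assay · Buffer or medium – HBSS with 20 mM HEPES for dye loading · Doses – single 10 µM final compound dose, 0.1% DMSO · Times – 37 °C overnight growth, 48 min FluoZin2-AM loading · Detection – FluoZin-2 fluorescence kinetics · Benchmarks – bumetanide 2 mM as positive control · Repeats – Per-replicate slope values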"}, "[4]": {"biological_target": "Solute carrier family 12 member 5 (Homo sapiens) (UniProt Q9H2X9)", "assay": "modulation of KCC2 thallium flux in HEK cells – cell-based, ouabain, retest, confirmation (AID 1717;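 active = thallium flux slope beyond 3 SD from same-plate DMSO control mean in most replicates, usually higher, sometimes lower; inconclusive = repeat tests gave conflicting results; inactive = no significant difference from controls in most replicates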;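 note: slope of initial-normalized fluorescence between seconds 10 and 20 after thallium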)", "conditions": "HEK293-KCC2, thallium flux FluoZin2 fluorescence, at 10 µM, bidirectional: low = inhibitor, high = activator"}}, "note": "Inconclusive means that the source gave no clear call. Such entries were picked first, then a sample of the others. Calls of active or inactive are those of the source.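 Rule for the calls, unless noted: active = thallium flux slope more than 3 SD above or below the plate's solvent-only control mean, mostly below; inconclusive = the two repeat wells disagreed; inactive = no significant shift from solvent-only controls.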"}
{"smiles": "CNc1oc(Cc2cccc3ccccc23)nc1C#N", "values": [{"measurement": "normalized thallium flux", "setting": "[1]", "result": "inconclusive: 0.0295"}, {"measurement": "thallium flux rate (normalised fluorescence)", "setting": "[2]", "result": "inactive: 0.00791"}, {"measurement": "thallium flux slope", "setting": "[3]", "result": "inconclusive: 0.0113"}]}
{"smiles": "O=S(=O)(c1ccc(F)cc1)N1CCC(O)(c2ccc3c(c2)OCO3)CC1", "values": [{"measurement": "normalized thallium flux", "setting": "[1]", "result": "inactive: 0.0277"}, {"measurement": "thallium flux rate (normalised fluorescence)", "setting": "[2]", "result": "inactive: 0.00757"}, {"measurement": "thallium flux slope", "setting": "[3]", "result": "inactive: 0.00989"}]}
{"smiles": "O=C(NC(=S)Nc1ccc(N2CCOCC2)cc1)c1cccs1", "values": [{"measurement": "normalized thallium flux", "setting": "[1]", "result": "inactive: 0.0316"}, {"measurement": "thallium flux rate (normalised fluorescence)", "setting": "[2]", "result": "inconclusive: 0.00865"}, {"measurement": "thallium flux slope", "setting": "[3]", "result": "inactive: 0.011"}]}
{"smiles": "O=C(O)c1ccccc1-c1ccccc1C(=O)Nc1cccc(-c2nc3ccccc3o2)c1", "values": [{"measurement": "normalized thallium flux", "setting": "[1]", "result": "active: 0.0256"}, {"measurement": "thallium flux rate (normalised fluorescence)", "setting": "[2]", "result": "inconclusive: 0.00892"}, {"measurement": "raw Tl+ flux slope (below DMSO = inhibition, above = activation)", "setting": "[4]", "result": "active: 0.013"}, {"measurement": "thallium flux slope", "setting": "[3]", "result": "inconclusive: 0.0125"}]}
{"smiles": "CCCCC(=O)Nc1ccc(C(=O)NNC(=S)NC(=O)c2ccco2)cc1", "values": [{"measurement": "normalized thallium flux", "setting": "[1]", "result": "inactive: 0.0342"}, {"measurement": "thallium flux rate (normalised fluorescence)", "setting": "[2]", "result": "inconclusive: 0.0221"}, {"measurement": "thallium flux slope", "setting": "[3]", "result": "inconclusive: 0.0147"}]}
{"smiles": "O=C(Cn1ccc2ccccc2c1=O)NCCC(=O)N1CCN(c2cccc(Cl)c2)CC1", "values": [{"measurement": "normalized thallium flux", "setting": "[1]", "result": "inactive: 0.0338"}, {"measurement": "raw Tl+ flux slope (below DMSO = inhibition, above = activation)", "setting": "[4]", "result": "inconclusive: 0.0174"}]}
{"smiles": "O=C(Nc1ccc2[nH]c(=S)sc2c1)Nc1ccccc1F", "values": [{"measurement": "normalized thallium flux", "setting": "[1]", "result": "inconclusive: 0.0396"}, {"measurement": "thallium flux rate (normalised fluorescence)", "setting": "[2]", "result": "active: 0.0194"}, {"measurement": "thallium flux slope", "setting": "[3]", "result": "active: 0.021"}]}
{"smiles": "Cc1ccccc1NCC(=O)N/N=C/c1ccc([N+](=O)[O-])cc1", "values": [{"measurement": "normalized thallium flux", "setting": "[1]", "result": "inconclusive: 0.0265"}, {"measurement": "raw Tl+ flux slope (below DMSO = inhibition, above = activation)", "setting": "[4]", "result": "inactive: 0.0177"}]}
{"smiles": "COC(=O)C1=C(C(=O)OC)C(c2cc(Cl)ccc2O)c2sc(=O)[nH]c2S1", "note": "(stereo not given)", "values": [{"measurement": "normalized thallium flux", "setting": "[1]", "result": "inconclusive: 0.0256"}, {"measurement": "thallium flux rate (normalised fluorescence)", "setting": "[2]", "result": "inconclusive: 0.0061"}, {"measurement": "thallium flux slope", "setting": "[3]", "result": "inconclusive: 0.00852"}]}
{"smiles": "CC(C)Nc1oc(Cc2cccc3ccccc23)nc1C#N", "values": [{"measurement": "normalized thallium flux", "setting": "[1]", "result": "inconclusive: 0.0306"}, {"measurement": "thallium flux rate (normalised fluorescence)", "setting": "[2]", "result": "inconclusive: 0.00333"}, {"measurement": "raw Tl+ flux slope (below DMSO = inhibition, above = activation)", "setting": "[4]", "result": "active: 0.0137"}, {"measurement": "thallium flux slope", "setting": "[3]", "result": "inactive: 0.0115"}]}
{"smiles": "Cc1ccc(C)c(NC(=O)CSc2nnc([C@@H](N)Cc3ccccc3)o2)c1", "values": [{"measurement": "normalized thallium flux", "setting": "[1]", "result": "inconclusive: 0.026"}, {"measurement": "thallium flux rate (normalised fluorescence)", "setting": "[2]", "result": "inactive: 0.00677"}, {"measurement": "thallium flux slope", "setting": "[3]", "result": "inconclusive: 0.00988"}]}
{"smiles": "O=C(Nc1cccc(-c2nnn(CC(=O)N3CCc4ccccc4C3)n2)c1)C1CCC1", "values": [{"measurement": "normalized thallium flux", "setting": "[1]", "result": "inconclusive: 0.0254"}, {"measurement": "thallium flux rate (normalised fluorescence)", "setting": "[2]", "result": "inconclusive: 0.00669"}, {"measurement": "raw Tl+ flux slope (below DMSO = inhibition, above = activation)", "setting": "[4]", "result": "active: 0.0135"}, {"measurement": "thallium flux slope", "setting": "[3]", "result": "inactive: 0.0103"}]}
{"smiles": "S=c1[nH]nc(-c2ccc(Cl)cc2)n1/N=C/c1ccco1", "values": [{"measurement": "normalized thallium flux", "setting": "[1]", "result": "inconclusive: 0.0345"}, {"measurement": "thallium flux rate (normalised fluorescence)", "setting": "[2]", "result": "active: 0.0221"}, {"measurement": "raw Tl+ flux slope (below DMSO = inhibition, above = activation)", "setting": "[4]", "result": "active: 0.0325"}, {"measurement": "thallium flux slope", "setting": "[3]", "result": "active: 0.0203"}]}
{"smiles": "Cc1nn(CCCC(=O)N2CCc3ccccc3C2)c(=O)c2cc3sccc3n12", "values": [{"measurement": "normalized thallium flux", "setting": "[1]", "result": "inconclusive: 0.0287"}, {"measurement": "thallium flux rate (normalised fluorescence)", "setting": "[2]", "result": "inconclusive: 0.00658"}, {"measurement": "thallium flux slope", "setting": "[3]", "result": "inactive: 0.011"}]}
{"smiles": "O=C(O)CC/C(=C\\c1ccc(Cl)c([N+](=O)[O-])c1)c1nc2ccccc2s1", "values": [{"measurement": "normalized thallium flux", "setting": "[1]", "result": "inconclusive: 0.0246"}, {"measurement": "raw Tl+ flux slope (below DMSO = inhibition, above = activation)", "setting": "[4]", "result": "inconclusive: 0.0172"}]}
{"smiles": "O=C(N/N=C/c1ccccn1)c1cc(-c2ccc(Br)cc2)nc2ccccc12", "values": [{"measurement": "normalized thallium flux", "setting": "[1]", "result": "inactive: 0.0349"}, {"measurement": "thallium flux rate (normalised fluorescence)", "setting": "[2]", "result": "inconclusive: 0.0192"}, {"measurement": "raw Tl+ flux slope (below DMSO = inhibition, above = activation)", "setting": "[4]", "result": "inconclusive: 0.0263"}, {"measurement": "thallium flux slope", "setting": "[3]", "result": "inconclusive: 0.0143"}]}
{"smiles": "CN=c1scc(-c2ccc(F)cc2)n1/N=C/c1ccc(O)c(O)c1", "values": [{"measurement": "normalized thallium flux", "setting": "[1]", "result": "active: 0.0231"}, {"measurement": "thallium flux rate (normalised fluorescence)", "setting": "[2]", "result": "inactive: 0.00688"}, {"measurement": "thallium flux slope", "setting": "[3]", "result": "inconclusive: 0.00945"}]}
{"smiles": "Cc1ccc(S(=O)(=O)N2CCC(=O)N(C(COCc3ccccc3)Cc3ccccc3)CC2)cc1", "note": "(stereo not given)", "values": [{"measurement": "normalized thallium flux", "setting": "[1]", "result": "inconclusive: 0.0265"}, {"measurement": "thallium flux rate (normalised fluorescence)", "setting": "[2]", "result": "inactive: 0.00716"}, {"measurement": "thallium flux slope", "setting": "[3]", "result": "inactive: 0.0107"}]}
{"smiles": "CC(C)CCNC(=O)[C@H](CSCc1ccccc1)N1Cc2ccccc2C1=O", "values": [{"measurement": "normalized thallium flux", "setting": "[1]", "result": "inconclusive: 0.0287"}, {"measurement": "thallium flux rate (normalised fluorescence)", "setting": "[2]", "result": "inconclusive: 0.00609"}, {"measurement": "thallium flux slope", "setting": "[3]", "result": "inactive: 0.00933"}]}
{"smiles": "Cc1nn(-c2ccc(F)cc2)c(C)c1NS(=O)(=O)c1ccc(Cl)cc1", "values": [{"measurement": "normalized thallium flux", "setting": "[1]", "result": "active: 0.0215"}, {"measurement": "raw Tl+ flux slope (below DMSO = inhibition, above = activation)", "setting": "[4]", "result": "inconclusive: 0.0166"}]}
{"smiles": "O=C(NC(=S)NC1CCCC1)c1ccccc1Br", "values": [{"measurement": "normalized thallium flux", "setting": "[1]", "result": "inactive: 0.0369"}, {"measurement": "raw Tl+ flux slope (below DMSO = inhibition, above = activation)", "setting": "[4]", "result": "inconclusive: 0.03"}]}
{"smiles": "CN(C(=S)NC(=O)C1(C)CC1(Cl)Cl)c1ccccc1", "note": "(stereo not given)", "values": [{"measurement": "normalized thallium flux", "setting": "[1]", "result": "inconclusive: 0.0358"}, {"measurement": "raw Tl+ flux slope (below DMSO = inhibition, above = activation)", "setting": "[4]", "result": "active: 0.0267"}]}
